{"source": "PubChem BioAssay AID504832", "about": "(National Center for Advancing Translational Sciences (NCATS), 2011)", "note": "The whole screen tested about 310,000 compounds, of which about 18,000 (5.8%) were called active. Inconclusive results, whose numbers are uncertain, are shown with a selection of clear calls. Calls follow the shape of the dose curve; as a rule, active = well fitted inhibition curve with a large enough effect; inconclusive = small, poorly fitted or top-dose-only effect, or another doubt; inactive = no such curve, though single readings can be large or run the other way. No potency is given beside an inconclusive call; the fits are too rough. % is scaled to controls: 0 for no effect and ±100 for the full control effect; potency is read from the fitted curve at half-maximal effect; tags tell the direction and shape of the fitted curve."}
{"assay": "Primary qHTS for delayed death inhibitors of the malarial parasite plastid, 48 hour incubation", "settings": "P. falciparum luciferase growth in erythrocytes; series mostly up to 28.7 µM; activity change, negative = inhibition: at the top concentration", "procedure,_shortened": "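Luciferase-expressing parasites in RBCs, 2% Hct / 0.1% parasitemia final; RPMI 1640 + 0.5% Albumax; 37 C, 5% CO2, one generation; luminescence read-out, lower signal = inhibition.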"}
{"smiles": "COc1ccc(OCCC(=O)N2CCCCC2)cc1", "activity change, negative = inhibition": "inactive: 127%"}
{"smiles": "CC(=O)N1c2c(cc(Br)cc2S(=O)(=O)N2CCN(c3ccccc3F)CC2)CC1C", "note": "(centres undefined)", "Potency": "inconclusive [inhibitor, single point]"}
{"smiles": "CCCC[C@@H]1CNC(=S)N1CCc1cccc(F)c1", "Potency": "inconclusive [inhibitor, partial curve]"}
{"smiles": "Cn1c(CCN2CCN(c3ccccn3)CC2)nc2cc(NS(=O)(=O)c3ccccc3)ccc21", "Potency": "inconclusive [inhibitor, partial curve]"}
{"smiles": "Cc1cc(=O)oc2cc(OCC(=O)OCC(=O)Nc3ccccc3C(C)C)ccc12", "activity change, negative = inhibition": "inactive: 16.9%"}
{"smiles": "CC(C)(CN1CCN(C(c2ccccc2)c2ccccc2)CC1)NS(=O)(=O)c1ccccc1", "Potency": "active: 11.7 µM"}
{"smiles": "CC1CCCN(C(=O)CSc2ncccn2)C1", "note": "(centres undefined)", "activity change, negative = inhibition": "inactive: 48.4%"}
{"smiles": "CCCCn1c(N)c(NCC)c(=O)[nH]c1=O", "activity change, negative = inhibition": "inactive: 10.6%"}
{"smiles": "O=C1CC(c2ccco2)CC2=C1C1c3ccccc3C(=O)N1c1ccccc1N2", "note": "(centres undefined)", "Potency": "inconclusive [inhibitor, partial curve, poor fit]"}
{"smiles": "CC(C)c1ccc(-c2nnn(Cc3nc4ccccc4s3)n2)cc1", "activity change, negative = inhibition": "inactive: 11.8%"}
{"smiles": "Clc1ccc(-n2ncc3c(N4CCCCCC4)ncnc32)cc1", "activity change, negative = inhibition": "inactive: 62.4%"}
{"smiles": "COc1ccc(S(=O)(=O)N2CCOCC2)cc1NC(=O)c1ccc(=O)[nH]c1", "Potency": "inconclusive [inhibitor, single point]"}
{"smiles": "O=C(c1ccco1)N1CCN(Cc2cn[nH]c2-c2cccc3ccccc23)CC1", "Potency": "inconclusive [inhibitor, partial curve, poor fit]"}
{"smiles": "COC(=O)c1cn(NC(=O)Cc2ccccc2Br)c(=O)c2ccccc12", "activity change, negative = inhibition": "inactive: 14.5%"}
{"smiles": "O=C(Cn1cc(C(F)(F)F)ccc1=O)NCCc1ccc(Cl)cc1Cl", "Potency": "inconclusive [inhibitor, single point]"}
{"smiles": "CC1CC(C)CN(C(=O)COC(=O)c2nn(C)c(=O)c3ccccc23)C1", "note": "(centres undefined)", "activity change, negative = inhibition": "inactive: 5.93%"}
{"smiles": "COc1ccccc1NC(=O)CC(=O)c1cccc([N+](=O)[O-])c1", "activity change, negative = inhibition": "inactive: -29.4%"}
{"smiles": "COc1ccc(C)cc1NC(=O)NCCCCc1ccccc1", "Potency": "active: 14.7 µM"}
{"smiles": "Cc1cc(C)c(C)c(S(=O)(=O)N(C)C2CCN(C)CC2)c1C", "Potency": "inconclusive [inhibitor, full curve, poor fit]"}
{"smiles": "COc1ccccc1NS(=O)(=O)c1cc([N+](=O)[O-])ccc1N/N=C/c1c[nH]c2ccccc12", "Potency": "inconclusive [inhibitor, partial curve, poor fit]"}
{"smiles": "Cc1ccccc1S(=O)(=O)Cc1ccc(C(=O)NCCCN2CCN(C)CC2)o1", "Potency": "inconclusive [inhibitor, single point]"}
{"smiles": "O=c1[nH]c2ccccc2nc1/C=C(\\O)C(F)F", "Potency": "inconclusive [inhibitor, partial curve, poor fit]"}
{"smiles": "Cc1cc(OCc2cc(C(=O)N3CCN(C)C(=O)[C@@H]3C)no2)cc(C)c1Cl", "Potency": "inconclusive [inhibitor, single point]"}
{"smiles": "CN([C@@H](Cc1ccc(OS(=O)(=O)c2cccc3cnccc23)cc1)C(=O)N1CCN(c2ccccc2)CC1)S(=O)(=O)c1cccc2cnccc12", "Potency": "active: 0.928 µM"}
{"smiles": "C#CCN(C(=O)c1cc(COc2ccc(C)c(C)c2)on1)C1CCCCC1", "Potency": "inconclusive [inhibitor, partial curve, poor fit]"}
{"smiles": "COCCCNC(=O)Cn1c(=O)n(Cc2ccc(C(=O)NCCc3ccc(OC)c(OC)c3)cc2)c(=O)c2ccccc21", "Potency": "inconclusive [inhibitor, partial curve, poor fit]"}
{"smiles": "O=C(OCC(=O)N1N=C(c2ccc(Cl)cc2)CC1c1ccco1)c1ccccc1O", "note": "(centres undefined)", "Potency": "inconclusive [inhibitor, single point]"}
{"smiles": "CC(C)(C)NC(=O)C(c1ccncc1)N(C(=O)CNC(=O)c1ccco1)c1ccc2c(c1)OCO2", "note": "(centres undefined)", "activity change, negative = inhibition": "inactive: 2.89%"}
{"smiles": "Cc1ccc(OCC(=O)Nc2c(C)nn(-c3ccccc3)c2C)c(Br)c1", "Potency": "inconclusive [inhibitor, single point]"}
{"smiles": "CCCC(=O)NC(Nc1ccccc1F)C(Cl)(Cl)Cl", "note": "(centres undefined)", "Potency": "inconclusive [inhibitor, single point]"}
{"smiles": "O=C(Nc1ccc(Oc2cccnc2)cc1)C1CCN(Cc2ccccc2)CC1", "Potency": "inconclusive [inhibitor, partial curve, poor fit]"}
{"smiles": "Cc1ccc(C)n1-c1ccc(-c2nnco2)cc1", "activity change, negative = inhibition": "inactive: -6.04%"}
{"smiles": "CCCn1c(C)cc(=O)c2cc(NC(=O)c3ccccn3)ccc21", "Potency": "inconclusive [inhibitor, partial curve]"}
{"smiles": "COc1ccccc1N1CCN(S(=O)(=O)c2ccc3c4c(cccc24)C(=O)N3)CC1", "Potency": "inconclusive [inhibitor, partial curve, poor fit]"}
{"smiles": "N#Cc1ccc(OCC(=O)OCC(=O)c2ccc[nH]2)cc1", "activity change, negative = inhibition": "inactive: 5.44%"}
{"smiles": "C#Cc1ccc([C@H]2C=C(C(=O)N3CCN(Cc4ccccc4)CC3)O[C@@H](OCc3ccc(CO)cc3)C2)cc1", "Potency": "active: 3.29 µM"}
{"smiles": "Cc1cnc(C(=O)OCC(=O)c2c[nH]c3ccccc23)cn1", "Potency": "active: 13.1 µM"}
{"smiles": "CCCCC(NC(=O)COc1cc2c(c3oc(=O)cc(C)c13)CCC(C)(C)O2)C(=O)O", "note": "(centres undefined)", "Potency": "inconclusive [inhibitor, single point]"}
{"smiles": "O=C(Nc1ccon1)Nc1ccccc1C(F)(F)F", "activity change, negative = inhibition": "inactive: -26.4%"}
{"smiles": "CC(C)C(NC(=O)C12CC3CC(CC(C3)C1)C2)C(=O)NC1=NCCS1", "note": "(centres undefined)", "Potency": "inconclusive [inhibitor, single point]"}
{"smiles": "Cn1c(CNc2nc(-c3ccccc3)cs2)nnc1SCC(=O)OC1CCCCC1", "Potency": "active: 2.33 µM"}
{"smiles": "CCOc1ccc(NC(=O)Nc2cc(-c3ccccc3)sc2C(=O)OC)cc1", "Potency": "inconclusive [inhibitor, partial curve, poor fit]"}
{"smiles": "CC(c1cccs1)N(Cc1ccco1)C(=S)Nc1ccc(F)c(Cl)c1", "note": "(centres undefined)", "Potency": "inconclusive [inhibitor, single point]"}
{"smiles": "Cc1cc(N2CCN(C)CC2)ccc1NC(=O)c1c2c(nc3ccccc13)CCN(Cc1ccccc1)C2", "Potency": "inconclusive [inhibitor, single point]"}
{"smiles": "C=CCn1c(SCCC(=O)O)nc2c1c(=O)n(C)c(=O)n2C", "activity change, negative = inhibition": "inactive: 2.64%"}
{"smiles": "CC(c1nc2ccccc2c(=O)[nH]1)N1CCCN(S(=O)(=O)c2ccc(F)cc2)CC1", "note": "(centres undefined)", "Potency": "inconclusive [inhibitor, partial curve]"}
{"smiles": "CCCCC/C=C/C1=CC(=O)C[C@H](c2ccc(Cl)cc2)C1", "Potency": "inconclusive [inhibitor, single point]"}
{"smiles": "CCCCCCN(C(=O)CCl)c1ccccc1", "Potency": "inconclusive [inhibitor, single point]"}
{"smiles": "CCCCN1C(=O)C2Cc3c([nH]c4ccccc34)CN2C1=S", "note": "(centres undefined)", "Potency": "inconclusive [inhibitor, single point]"}
{"smiles": "CC(C)=CCN1CCN(Cc2nc(-c3ccc(F)cc3)cs2)CC1CCO", "note": "(centres undefined)", "Potency": "inconclusive [inhibitor, single point]"}
{"smiles": "CCCCCC(=O)Nc1cccc(S(=O)(=O)NC2=NCCCCC2)c1", "Potency": "inconclusive [inhibitor, partial curve]"}
{"smiles": "O=C(CSc1nc2ccsc2c(=O)n1CC1CCC(C(=O)O)CC1)NCCc1ccc(Cl)cc1", "note": "(centres undefined)", "Potency": "inconclusive [inhibitor, single point]"}
{"smiles": "CCCCN(CCCNC(=O)CN1C(=O)COc2ccccc21)c1ccccc1", "Potency": "inconclusive [inhibitor, single point]"}
{"smiles": "CCOC(=O)c1cnc(-c2ccccc2)nc1N1CCOCC1", "Potency": "inconclusive [inhibitor, partial curve, poor fit]"}
{"smiles": "COc1ccc(NS(=O)(=O)c2cccc(C(=O)NCC(c3ccc(OC)cc3)N3CCCC3)c2)cc1", "note": "(centres undefined)", "Potency": "active: 6.57 µM"}
{"smiles": "CC(C)CNc1nc2c(c(=O)n(C)c(=O)n2C)n1Cc1cccc(Br)c1", "Potency": "active: 11.7 µM"}
{"smiles": "COc1ccccc1NC(=O)Cn1nc(-c2ccncc2)nc1SCC(=O)NC1CCCC1", "activity change, negative = inhibition": "inactive: 23.4%"}
{"smiles": "CCc1cc(=O)oc2c(C)c(OCC(=O)NCC3CCC(C(=O)O)CC3)ccc12", "note": "(centres undefined)", "activity change, negative = inhibition": "inactive: -6.96%"}
{"smiles": "CCc1cc2c(=O)c(-c3nc4ccccc4n3C)coc2c(CN2CCCC(C)C2)c1O", "note": "(centres undefined)", "Potency": "inconclusive [inhibitor, partial curve, poor fit]"}
{"smiles": "COc1ccc(-c2nnn(CC(=O)N3CCN(c4ccccc4OC)CC3)n2)cc1OC", "Potency": "inconclusive [inhibitor, single point]"}
{"smiles": "CCCN(CC(=O)Nc1ccccc1OC)C(=O)CN1C(=O)NC2(CCCCC2)C1=O", "Potency": "inconclusive [inhibitor, single point]"}
{"smiles": "CCCCSC1=N/C(=C/c2ccsc2)C(=O)N1c1ccccc1", "Potency": "inconclusive [inhibitor, single point]"}
{"smiles": "Cc1c(C(=O)Nc2ccc(F)cc2)oc2ccc(S(=O)(=O)N3CCC4(CC3)OCCO4)cc12", "Potency": "active: 9.28 µM"}
{"smiles": "CCC/C(O)=C1\\C(=O)CCCC1=NCCc1ccc(OCC)c(OCC)c1", "Potency": "inconclusive [inhibitor, single point]"}
{"smiles": "Cc1ccc(S(=O)(=O)NC2CC2)cc1", "activity change, negative = inhibition": "inactive: 18.6%"}
{"smiles": "CCOc1ccc(CCNS(=O)(=O)c2ccc3c(c2)oc(=O)n3C)cc1OCC", "activity change, negative = inhibition": "inactive: -3.4%"}
{"smiles": "CSc1nc(-c2ccc(Cl)cc2)c(C#N)c(=O)n1C", "Potency": "inconclusive [inhibitor, partial curve]"}
{"smiles": "O=C(Nc1nnc(C2CC2)s1)c1ccccn1", "Potency": "inconclusive [inhibitor, single point]"}
{"smiles": "COC(=O)C1=C(c2ccc(OC(F)(F)F)cc2)C[C@@H]2CC[C@H]1N2C(=O)NC1Cc2ccccc2C1", "Potency": "inconclusive [inhibitor, partial curve, poor fit]"}
